Laboratory results published in the GPR68 mutational scans of Howard et al. (2025).
Scores with a large standard error are left out. The source holds two more conditions with little spread; they are left out. Read del as a deletion of the residues named and ins as an insertion between two positions. For some of these results: How much ogerin was present is not stated here.

B1: GPR68, Q15743 (parent)
chain: MGNITADNSSMSCTIDHTIHQTLAPVVYVTVLVVGFPANCLSLYFGYLQIKARNELGVYLCNLTVADLFYICSLPFWLQYVLQHDNWSHGDLSCQVCGILLYENIYISVGFLCCISVDRYLAVAHPFRFHQFRTLKAAVGVSVVIWAKELLTSIYFLMHEEVIEDENQHRVCFEHYPIQAWQRAINYYRFLVGFLFPICLLLASYQGILRAVRRSHGTQKSRKDQIQRLVLSTVVIFLACFLPYHVLLLVRSVWEASCDFAKGVFNAYHFSLLLTSFNCVADPVLYCFVSETTHRDLARLRGACLAFLTCSRTGRAREAYPLGAPEASGKSGAQGEEPELLTKLHPAFQTPNSPGSGGFPTGRLA

Columns and labels:
[1] = variants of: B1; test: cAMP reporter score (Enrich2 score, wild type = 0); higher = more signal; HEK293T, FACS bins
[2] = variants of: B1; test: surface expression score (Enrich2 score, wild type = 0); higher = more signal; HEK293T, FACS bins

| Variant | cAMP reporter score ([1]; pH 5.5) | cAMP reporter score ([1]; pH 6, modulator: ogerin) | cAMP reporter score ([1]; pH 6.5, modulator: ogerin) | surface expression score [2] | cAMP reporter score ([1]; pH 6) |
| --- | --- | --- | --- | --- | --- |
| Q206S | -0.322 | -0.1 | 1.37 | 0.52 |  |
| Q206T | -0.171 | 0.012 | 0.257 | -0.022 | 0.273 |
| Q206V | 1.69 | 1.75 | 1.87 | 2.1 |  |
| Q206W | 0.27 | 1.11 | 1.92 | 1.57 |  |
| Q206_G207del | -0.949 | -0.583 | -0.192 | -2.22 | -1.09 |
| G207A | 1.21 | 1.14 | 0.009 | 0.012 | 0.129 |
| G207C | 0.227 | -0.641 | -0.696 | -1.23 | -1.46 |
| G207D | -1.46 | -1.8 | -1.86 | -2.28 | -0.91 |
| G207E | -0.436 | -0.873 | -0.754 | -1.25 | -0.912 |
| G207F | -0.048 | -0.928 | -0.782 |  | -1.17 |
| G207H | -0.525 | -0.762 | -2.09 | -1.42 | -0.757 |
| G207I | -1.13 |  | -0.756 | -1.91 | -0.786 |
| G207K | -0.691 | -0.597 | -1.31 | -1.07 | -1.27 |
| G207L | 0.614 | 0.172 | -0.591 | -0.788 | -0.806 |
| G207M | -0.853 | -1.22 | -1.22 | -1.24 | -1.12 |
| G207N | -1.47 | -0.062 | 0.73 | -1.12 | -0.484 |

| Variant | cAMP reporter score ([1]; pH 5.5) | cAMP reporter score ([1]; pH 6, modulator: ogerin) | cAMP reporter score ([1]; pH 6.5, modulator: ogerin) | surface expression score [2] | cAMP reporter score ([1]; pH 6) |
| --- | --- | --- | --- | --- | --- |
| G207P | -0.061 | -0.742 | -0.806 | -2.76 | 0.284 |
| G207Q | 1.82 | 1.34 | 0.999 | -0.731 | 0.104 |
| G207R | -0.325 | -0.778 | -1.44 | -1.67 |  |
| G207S | 0.654 | 0.812 | -0.188 | -1.5 | -0.342 |
| G207T | -0.809 | -1.72 | -1.19 | -1.64 | -0.455 |
| G207V | -1.96 | -1.65 | -1.27 | -1.74 | -1.26 |
| G207Y | 0.198 | -0.495 | -0.865 | -1.34 | -0.998 |
| G207_I208del | -1.24 | -1.5 | -0.366 | -2.73 | -0.768 |
| G207_I208insGS | -1.71 | -0.626 | -1.47 | -2.56 | -1.53 |
| G207del | -1.51 | -1.8 | -1.2 | -2.78 | -1.82 |
| I208_L209insG | -0.353 | -0.95 | -0.27 | -1.99 | 0.075 |
| L209_A211del | -1.67 | -1.23 | -0.741 | -0.043 | -0.716 |
| L209_R210del | -1.58 | -1.5 | -1.46 | -1.67 | -1.71 |
| L209_R210insGSG | -1.12 | -1.87 | -1.57 | -2.19 | -1.42 |
| R210_A211del | -0.537 | -0.852 | -0.213 |  | -1.14 |
